# Measured values reported in PMC6212790.
# Some of the results follow. At the low end of the ranking the order means little.
# Biological target: T1, GST-Rok (full length) (UniProt O34857)
# T1 sequence: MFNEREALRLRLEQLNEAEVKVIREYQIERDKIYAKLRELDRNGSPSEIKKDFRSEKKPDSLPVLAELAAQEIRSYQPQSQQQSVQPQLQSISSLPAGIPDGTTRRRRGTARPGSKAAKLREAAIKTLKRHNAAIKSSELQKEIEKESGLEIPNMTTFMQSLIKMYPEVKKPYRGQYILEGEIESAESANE
# Test: protein binding microarray;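 also: rank score from −0.5 (least bound) to 0.5 (best bound)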
# Conditions: Rok is a gene silencer of Bacillus subtilis; high values mean tight binding; most listed sequences are background and not binding sites; double strand, one strand shown
row,Sequence,binding signal [E-score]
1,GCAAGCCC,-0.251
2,GCCCACTA,0.00538
3,AAGTCATC,-0.00303
4,GGTTTTCA,0.0208
5,AGCTAACG,0.0558
6,AGGTAAAA,0.256
7,CGCAGTGC,-0.0225
8,GGAGAACA,-0.231
9,AATCCCCG,-0.17
10,ACCCTGAA,-0.182
11,CCTAGTGA,-0.0373
12,AGCCTGCG,-0.0872
13,CCCGGATA,-0.244
14,CGCACCAG,-0.0807
15,AACTTCTA,0.296
16,ACCGCCGA,-0.213
17,GTCCCACA,0.00138
18,AGCCCCCA,-0.304
19,CGCATTAA,0.0651
20,CATCTCTC,-0.108
21,ATATCAGA,0.221
22,CGATGACC,-0.152
23,CTCACAAA,-0.0424
24,CATTGTGG,-0.133
25,ATTGGCGG,-0.201

row,Sequence,binding signal [E-score]
1,ACAACGAG,0.021
2,ATAAGTCG,0.0929
3,AGTGAAAG,0.109
4,GGATTCTA,0.262
5,CTAGCTAA,0.133
6,GGGTGGTA,-0.00701
7,CCTGTAAA,-0.0295
8,TCAGTGGA,-0.0186
9,AGGTCGGA,-0.261
10,TAAGGCCA,-0.0495
11,GGTACCAC,0.116
12,ATCCGAAG,0.0408
13,CTGGCCCA,-0.303
14,ACTCATGC,-0.0119
15,TAGACTAA,0.075
16,GCGATTTA,0.315
17,CCATAGCA,-0.0553
18,AATACGTC,0.232
19,TATTCCGA,0.154
20,AGAAAGGA,-0.125
21,GACTCACC,-0.225
22,GGTTCGCA,-0.114
23,ATCGCATC,-0.00537
24,ATAATGCA,0.308
25,AATCTCAC,0.0961

row,Sequence,binding signal [E-score]
1,CGACACTA,0.0897
2,CGATGCGA,-0.109
3,ACCAGAGT,0.0694
4,ACGCTGGG,-0.178
5,ACCAATCC,0.0382
6,GCATTGGC,-0.313
7,CGCTTTCC,-0.16
8,GACAAGGA,-0.0446
9,CCTTTTGC,-0.0538
10,AATGACCC,-0.157
11,AGAAGGAC,-0.175
12,AGCATTGC,0.0757
13,ACTATCGC,0.233
14,CGCAACAA,0.0445
15,ACTGATAT,0.242
16,AGTCCTAA,0.02
17,GTCACTTA,-0.119
18,CAAAATAC,0.351
19,AGACCGTC,-0.193
20,CTCAGCTA,0.224
21,CTGTGAGC,-0.185
22,GAATAACC,0.17
23,CCTCGAAG,-0.0738
24,CTGGGTGC,-0.153
25,CATGCAAA,-0.0437

row,Sequence,binding signal [E-score]
1,GGTGTGCA,-0.122
2,ACGATTCA,-0.00504
3,GCTTTCCA,-0.126
4,CACAGTCA,-0.0223
5,TACCTTGA,0.0553
6,CACTAGCC,-0.172
7,AGGGCCCT,-0.447
8,GCTTGTAA,0.144
9,ATATAAGA,0.211
10,ACACCGAA,-0.00594
11,AATCAGCC,-0.124
12,AGGATAGC,-0.0214
13,AACGATCT,-0.0279
14,AGGGGTGA,-0.368
15,AACCTTAG,-0.0335
16,CAATTCTC,0.233
17,AGAGTAAC,-0.112
18,CTCAGGCA,-0.175
19,ACTGTGCT,-0.0894
20,TAACCGGA,-0.108
21,ATTAAAAG,0.172
22,CTTAGGTC,0.00712
23,ACTAGTAC,0.41
24,TCTAAAGA,-0.07
25,ATGGCAGC,-0.061

row,Sequence,binding signal [E-score]
1,CACTCTCA,-0.109
2,GGCGACGA,-0.317
3,GAGAGGAC,-0.308
4,ATCCCTTG,-0.125
5,AGGCTCTC,-0.282
6,CTTTTGAA,-0.0531
7,CATAGGAC,0.161
8,CAGGCCCA,-0.343
9,CCCCCGCC,-0.404
10,AGGTATTC,-0.0919
11,CACGGATC,0.0143
12,TATTACAA,0.236
13,ATTGTCGC,0.0939
14,GCAGGAGC,-0.3
15,AGGTATTG,0.155
16,CTCTTGGC,-0.0458
17,AATGTGGG,-0.0708
18,GGTTATAA,0.146
19,GGTAGCCA,-0.0127
20,ATCCACCA,-0.0266
21,CAGGAATG,-0.136
22,CCCTCAGC,-0.383
23,ACGTCGCG,0.0874
24,AAACCCCG,-0.432
25,CCAGGACG,-0.199

row,Sequence,binding signal [E-score]
1,AGAAAGTA,0.335
2,ATGCCAAT,0.0103
3,ACGACCCC,-0.335
4,CCTCTCCG,-0.263
5,AACTGAGC,0.0683
6,AAAATTGT,0.234
7,AGCCGCGG,-0.162
8,CGCTTTAC,-0.19
9,TACAGGTA,0.183
10,AATAACGA,0.237
11,AATGTAGG,0.174
12,ACCGCTCA,-0.00169
13,CTCGTGTA,-0.0219
14,CACATCCA,0.0558
15,AATCAGGT,0.204
16,AAGGTACG,-0.206
17,CCGTTAAA,0.147
18,ATTTCCAA,0.219
19,AAACGTAC,0.153
20,CATCAAGA,-0.132
21,CTTTAAAC,0.0313
22,ATGATATG,0.172
23,CGCAATAC,0.0487
24,GAGGGCGC,-0.326
25,CTACAGTA,0.27

row,Sequence,binding signal [E-score]
1,ATCACGTC,-0.00873
2,ACCGACAT,-0.187
3,GCTAACTA,0.341
4,ACATTGCA,0.0856
5,AGATTCCC,-0.058
6,CGAGCGTC,-0.314
7,TAAGTCTA,0.207
8,CGTCCACA,-0.0421
9,CCCACTTC,-0.152
10,CGAGTGAG,0.0112
11,CCTCAAGG,-0.342
12,ACCTTCAA,-0.196
13,AATCCGCG,-0.0736
14,ATAGAAAA,0.324
15,GAGGGCAC,-0.241
16,ATGGTAAT,0.208
17,GACTGAGC,-0.0481
18,CACGCGTA,0.0489
19,CCACACTC,-0.193
20,ATTGCCAG,0.0373
21,TCGACGCA,-0.0236
22,ATCATGGA,-0.0894
23,CGAGGAAA,-0.208
24,TACCCCTA,-0.0499
25,CGTATGGA,0.128

row,Sequence,binding signal [E-score]
1,AGAGTCAC,-0.0764
2,AGCTCGAA,-0.0766
3,CTTCGTCC,-0.0852
4,GGGAGGGA,-0.238
5,CCAACTCC,-0.184
6,ATAGCACG,0.14
7,CCTGAACC,-0.296
8,AGGCTCAA,-0.262
9,CCAAGTCG,-0.224
10,ATGCACGA,-0.167
11,ATCCCAAA,0.0535
12,TAATGCAA,0.167
13,GTCTTAAC,-0.179
14,CCCGCGCA,-0.303
15,GTGATGTA,0.013
16,ATGCGTTG,-0.062
17,CCGACATA,0.0114
18,ACTATGTC,0.0845
19,CCCCAGCG,-0.305
20,AGTACCTG,0.00392
21,AGTGTAAT,0.188
22,TTAAGGAA,-0.128
23,AGTTTGCA,0.159
24,ACCTCTGG,-0.232
25,GTCGGCAA,-0.0858

row,Sequence,binding signal [E-score]
1,CAATTCAA,0.045
2,GTAGTAAA,0.348
3,AACTGGTC,-0.113
4,TACTTAAA,0.161
5,CGAGAAAA,0.0282
6,ACTTCGCG,-0.0373
7,GCACCTGA,-0.169
8,ACGACCGA,-0.0156
9,GGCGCGAC,-0.107
10,CCCAATGA,-0.304
11,AATTTAAG,0.18
12,AAATCTTG,0.0905
13,CGAACTAC,0.358
14,GGTCCTAC,0.0108
15,GCCAGCAA,-0.00575
16,GCCCGATA,0.0089
17,CAGCGAAA,0.022
18,CAATGGTG,-0.0306
19,GCAACAGC,-0.182
20,AACATGTG,0.0924
21,ACTCGCAA,0.0596
22,CGGCCCGA,-0.264
23,AGCTCGCA,-0.182
24,ACCATACT,0.229
25,GTTAGAAA,0.227

row,Sequence,binding signal [E-score]
1,TAATCTCA,0.191
2,CGTGTTTA,0.0967
3,CATGGGTC,-0.0833
4,CTCCCCTA,-0.284
5,GCCCGGAC,-0.33
6,TCCCTACA,-0.00586
7,AGGTATAG,0.233
8,AACGAAGC,-0.108
9,ACGACTCC,-0.217
10,GATTGCAC,-0.0936
11,AGCCGGGA,-0.232
12,ACCATGGC,-0.102
13,CAAACACG,0.0393
14,CCCAGTTC,-0.23
15,CTCGGTGC,-0.103
16,AGATGTTG,0.0239
17,CGAAGAAC,-0.0769
18,GTCACGAC,-0.159
19,CGAATCTC,-0.0708
20,GTAACGAA,0.17
21,GGTGTTTA,0.045
22,AAATAAGT,0.131
23,ACAAATCG,0.0545
24,ATGCTGAC,-0.12
25,ATGTCGCG,-0.0435

row,Sequence,binding signal [E-score]
1,CGGGAATA,0.0227
2,ACGTATCT,0.213
3,CTGGTTGA,-0.108
4,AAGATGTC,-0.237
5,CAACAAGG,-0.0722
6,TGCATTAA,0.25
7,CGGGACCG,-0.309
8,AACTCGAT,-0.0422
9,ACCCTGCC,-0.199
10,AAAAATTT,-0.0258
11,ATCCAAGC,-0.0616
12,TATCTCAA,0.171
13,AATAATAC,0.332
14,AGGTAAAG,-0.046
15,TAGTCGGA,0.0437
16,GATATTCA,0.209
17,ACTCGAAC,0.0593
18,TAGAGCTA,0.109
19,AACCTTTA,0.114
20,AGCCGTGC,-0.157
21,AGTCGCTC,-0.207
22,CCCTTCCC,-0.388
23,ATTTACAG,0.24
24,ACTGGCTG,-0.15
25,CCAGCGGG,-0.322

row,Sequence,binding signal [E-score]
1,GAGCACTA,-0.168
2,ACGCCATC,-0.182
3,CGTACCAG,-0.248
4,CAACACGC,-0.0842
5,ACATCGCA,-0.0466
6,ACACACCA,0.0867
7,ACTGCGAT,-0.0287
8,AATTCCTC,-0.183
9,CCGTAGGA,-0.205
10,ACCGTCAG,-0.081
11,TTCCTAAA,0.0568
12,CCAATCGG,-0.292
13,AGGTCTGG,-0.0443
14,AGTTCTAG,0.335
15,AGGGGCGA,-0.271
16,TTCATCAA,0.0554
17,ACTCCCAG,-0.218
18,GTATCAAC,0.151
19,AGTGGGAT,-0.132
20,GGAAAATA,0.37
21,CCAATCAC,-0.0893
22,GAATACTC,0.0435
23,AGAGAGAC,-0.305
24,GACACCCC,-0.309
25,AAAGGCTA,0.0162

row,Sequence,binding signal [E-score]
1,GACCGTGC,-0.0607
2,GTACTGAC,0.124
3,CCAATGAC,-0.159
4,AAGACACC,-0.165
5,AGGCTGAT,-0.0271
6,ACTTGGAC,-0.0575
7,ACAATCCT,0.2
8,ACCTTTGA,-0.0903
9,AGCACAAA,0.154
10,AGCAGGTG,-0.239
11,AGATTTTC,0.0566
12,GCGGTGGA,-0.143
13,GAGAACTC,-0.267
14,TCCTCACA,0.0323
15,CGCGTGTC,-0.135
16,AATCATAC,0.211
17,ACGCTGCG,-0.196
18,CCCTACCC,-0.215
19,AATCAATA,0.296
20,AGTTACTA,0.345
21,ACCCACAG,-0.0284
22,AAATACAC,0.216
23,CGATGAAG,-0.0041
24,CATGAGAC,0.0242
25,CCAACCCC,-0.41

row,Sequence,binding signal [E-score]
1,GAGCGCAC,-0.22
2,AACCCGAT,-0.0269
3,GCAGAGGC,-0.347
4,CCAAGGGG,-0.397
5,GCGAGAGC,-0.342
6,CCAGTTAA,-0.0326
7,AGTTGTGG,0.0448
8,AACCCCAA,-0.227
9,AATCCTGC,-0.0557
10,GTCAATTA,0.194
11,GACAGCGC,-0.0411
12,ACTCCTTC,-0.163
13,GAACCTGA,0.0684
14,ATAAGTCC,0.051
15,CCCGTCCG,-0.279
16,CGGCCCCG,-0.307
17,CTTGCTTA,-0.138
18,CGAGAGCA,-0.154
19,GGGCGTGA,-0.34
